{"source": "patent US20190055314A1", "about": "(ADAGENE, published 2019)", "key": {"[1]": {"target": "T1, human CD137-His6 (Sino Biological #10041-H08H) (human, UniProt Q07011 24-186)", "T1 construct": "Bought; also called human CD137 protein; not shown: His6 tag", "experiment": "SPR Biacore, IgG"}, "[2]": {"target": "T2, human CD137 fused with human FC fragment (human, UniProt Q07011 24-186, limits assumed)", "T2 construct": "may be the same reagent as CD137-hisFc; also called human CD137 (FC fusion protein); not shown: human Fc fragment", "experiment": "ELISA, coated CD137-Fc"}, "[3]": {"target": "T3, monkey CD137 fused with human FC fragment (cynomolgus monkey, UniProt Q07011 24-179 (human entry), limits assumed)", "T3 construct": "also called Cyno CD137-Fc; not shown: human Fc fragment", "T3 chain": "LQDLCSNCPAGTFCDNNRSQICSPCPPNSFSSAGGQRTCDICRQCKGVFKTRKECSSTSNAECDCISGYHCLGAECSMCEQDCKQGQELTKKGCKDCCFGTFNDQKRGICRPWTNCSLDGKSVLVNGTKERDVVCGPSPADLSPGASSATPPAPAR", "experiment": "ELISA, coated CD137-Fc"}, "[4]": {"target": "T4, mouse CD137 fused with human FC fragment (mouse, UniProt P20334 24-178, limits assumed)", "T4 construct": "also called mouse CD137-Fc; not shown: human Fc fragment", "T4 sequence": "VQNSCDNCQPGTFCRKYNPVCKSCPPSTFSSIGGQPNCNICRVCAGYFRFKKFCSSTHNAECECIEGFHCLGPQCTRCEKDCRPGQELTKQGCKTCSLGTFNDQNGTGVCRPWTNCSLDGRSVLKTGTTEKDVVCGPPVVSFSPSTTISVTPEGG", "experiment": "ELISA, coated CD137-Fc"}, "[5]": {"target": "T5, full-length human CD137 on the cell surface (human, UniProt Q07011 18-255)", "T5 construct": "also called Human WT", "experiment": "flow cytometry, HEK293F"}, "[6]": {"target": "T6, full-length monkey CD137 on the cell surface (cynomolgus monkey, UniProt Q07011 24-179 (human entry))", "T6 chain": "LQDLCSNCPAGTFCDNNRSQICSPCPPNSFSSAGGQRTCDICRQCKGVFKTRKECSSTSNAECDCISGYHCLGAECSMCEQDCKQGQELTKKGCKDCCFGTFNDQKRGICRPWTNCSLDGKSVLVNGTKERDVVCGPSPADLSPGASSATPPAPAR", "experiment": "flow cytometry, HEK293F"}, "[7]": {"target": "T7, full-length mouse CD137 on the cell surface (mouse, UniProt P20334 24-178)", "T7 sequence": "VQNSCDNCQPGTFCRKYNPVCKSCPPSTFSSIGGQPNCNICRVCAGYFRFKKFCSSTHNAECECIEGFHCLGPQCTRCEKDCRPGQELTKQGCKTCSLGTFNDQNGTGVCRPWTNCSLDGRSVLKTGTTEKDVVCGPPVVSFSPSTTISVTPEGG", "experiment": "flow cytometry, HEK293F"}, "Hu_GQ109AA": {"target": "T8, Hu_GQ109AA (human, UniProt Q07011 18-255)", "T8 construct": "On HEK293F", "experiment": "flow cytometry, HEK293F"}, "Hu_EL111AA": {"target": "T9, Hu_EL111AA (human, UniProt Q07011 18-255)", "T9 construct": "On HEK293F", "experiment": "flow cytometry, HEK293F"}, "Hu_TN137AA": {"target": "T10, Hu_TN137AA (human, UniProt Q07011 18-255)", "T10 construct": "On HEK293F", "experiment": "flow cytometry, HEK293F"}, "Hu_T35A": {"target": "T11, Hu_T35A (human, UniProt Q07011 18-255)", "T11 construct": "On HEK293F; also called human CD137 T35A", "experiment": "flow cytometry, HEK293F"}, "Hu_F36A": {"target": "T12, Hu_F36A (human, UniProt Q07011 18-255)", "T12 construct": "On HEK293F; also called human CD137 F36A", "experiment": "flow cytometry, HEK293F"}, "Hu_F53A": {"target": "T13, Hu_F53A (human, UniProt Q07011 18-255)", "T13 construct": "On HEK293F; also called human CD137 F53A", "experiment": "flow cytometry, HEK293F"}, "Hu_R66A": {"target": "T14, Hu_R66A (human, UniProt Q07011 18-255)", "T14 construct": "On HEK293F; also called human CD137 R66A", "experiment": "flow cytometry, HEK293F"}, "Hu_F72A": {"target": "T15, Hu_F72A (human, UniProt Q07011 18-255)", "T15 construct": "On HEK293F; also called human CD137 F72A", "experiment": "flow cytometry, HEK293F"}, "Hu_N83A": {"target": "T16, Hu_N83A (human, UniProt Q07011 18-255)", "T16 construct": "On HEK293F; also called human CD137 N83A", "experiment": "flow cytometry, HEK293F"}, "Hu_F92A": {"target": "T17, Hu_F92A (human, UniProt Q07011 18-255)", "T17 construct": "On HEK293F; also called human CD137 F92A", "experiment": "flow cytometry, HEK293F"}, "[8]": {"target": "T1, human CD137-His6 (Sino Biological …)", "experiment": "SPR Biacore, IgG captured"}, "[9]": {"target": "T18, monkey CD137 protein (Biacore) (cynomolgus monkey, UniProt Q07011 24-179 (human entry), limits assumed)", "T18 construct": "Construct used as SPR analyte not described; also called Cyno CD137", "T18 chain": "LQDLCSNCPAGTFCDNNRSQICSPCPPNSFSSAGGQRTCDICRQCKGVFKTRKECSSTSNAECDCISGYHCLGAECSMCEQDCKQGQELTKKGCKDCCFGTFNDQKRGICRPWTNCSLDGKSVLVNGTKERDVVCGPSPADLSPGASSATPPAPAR", "experiment": "SPR Biacore, IgG captured"}, "[10]": {"target": "T19, mouse CD137 protein (Biacore) (mouse, UniProt P20334 24-178, limits assumed)", "T19 construct": "Construct used as SPR analyte not described", "T19 sequence": "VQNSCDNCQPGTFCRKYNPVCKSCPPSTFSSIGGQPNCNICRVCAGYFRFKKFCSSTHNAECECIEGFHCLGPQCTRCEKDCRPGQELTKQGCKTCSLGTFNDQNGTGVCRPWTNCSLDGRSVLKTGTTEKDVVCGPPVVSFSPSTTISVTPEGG", "experiment": "SPR Biacore, IgG captured"}, "[11]": {"target": "T5, full-length human CD137 on the cell …", "experiment": "cell-based or functional assay"}, "Hu_CRD2": {"target": "T20, Hu_CRD2 (human, UniProt Q07011 46-86, limits assumed)", "T20 construct": "also called human CD137 CRD2", "T20 chain": "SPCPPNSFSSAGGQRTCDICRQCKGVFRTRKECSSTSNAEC", "experiment": "flow cytometry, yeast display"}, "[12]": {"target": "T5, full-length human CD137 on the cell …", "experiment": "flow cytometry, yeast display"}}, "data": [{"binder": "AG10131 (antibody, human IgG4 S228P, kappa, also called AG10131-IgG4) heavy: EVQLVESGGGLVQPGGSLRLSCAASGFSLSTGGVGVGWIRQAPGKGLEWLALIDWADDKYYSPSLKSRLTISRDNSKNTLYLQLNSLRAEDTAVYYCARGGSDTVIGDWFAYWGQGTLVTVSSASTKGPSVFPLAPCSRSTSESTAALGCLVKDYFPEPVTVSWNSGALTSGVHTFPAVLQSSGLYSLSSVVTVPSSSLGTKTYTCNVDHKPSNTKVDKRV[human IgG4 Fc with S228P (EU numbers) skipped] light: DIQLTQSPSSLSASVGDRVTITCRASQSIGSYLAWYQQKPGKAPKLLIYDASNLETGVPSRFSGSGSGTDFTLTISSLQPEDFATYYCQQGYYLWTFGQGTKVEIKRTVAAPSVFIFPPSDEQLKSGTASVVCLLNNFYPREAKVQWKVDNALQSGNSQESVTEQDSKDSTYSLSSTLTLSKADYEKHKVYACEVTHQGLSSPVTKSFNRGEC", "values": [{"measurement": "Kd", "setting": "[1]", "result": 3.7, "unit": "nM"}, {"measurement": "koff", "setting": "[1]", "result": 0.0019, "unit": "s⁻¹"}, {"measurement": "kon", "setting": "[1]", "result": 510000, "unit": "M⁻¹ s⁻¹"}, {"measurement": "Kd", "setting": "[2]", "result": 0.2, "unit": "nM"}, {"measurement": "Kd", "setting": "[3]", "result": 0.3, "unit": "nM"}, {"measurement": "Kd", "setting": "[4]", "result": 23.9, "unit": "nM"}, {"measurement": "Kd", "setting": "[5]", "result": 1.3, "unit": "nM"}, {"measurement": "Kd", "setting": "[6]", "result": 1.2, "unit": "nM"}, {"measurement": "Kd", "setting": "[7]", "result": 49.4, "unit": "nM"}, {"measurement": "binding result", "setting": "Hu_GQ109AA", "result": "binds"}, {"measurement": "binding result", "setting": "Hu_EL111AA", "result": "binds"}, {"measurement": "binding result", "setting": "Hu_TN137AA", "result": "binds"}, {"measurement": "binding result", "setting": "Hu_T35A", "result": "no binding"}, {"measurement": "binding result", "setting": "Hu_F36A", "result": "no binding"}, {"measurement": "binding result", "setting": "Hu_F53A", "result": "no binding"}, {"measurement": "binding result", "setting": "Hu_R66A", "result": "no binding"}, {"measurement": "binding result", "setting": "Hu_F72A", "result": "no binding"}, {"measurement": "binding result", "setting": "Hu_N83A", "result": "no binding"}, {"measurement": "binding result", "setting": "Hu_F92A", "result": "no binding"}, {"measurement": "Kd", "setting": "[8]", "result": 3.7, "unit": "nM"}, {"measurement": "Kd", "setting": "[9]", "result": 12.5, "unit": "nM"}, {"measurement": "Kd", "setting": "[10]", "result": 64.5, "unit": "nM"}, {"measurement": "NFκB reporter: EC50 (nM) With Cross-Linker", "setting": "[11]", "result": 1.67, "unit": "nM"}, {"measurement": "% in upper right quadrant", "setting": "Hu_CRD2", "result": 0.21, "unit": "%"}, {"measurement": "Mean", "setting": "Hu_CRD2", "result": 14400}, {"measurement": "% in upper right quadrant", "setting": "[12]", "result": 32.1, "unit": "%"}]}]}
